# In publication PMC3342948:
# Amino acid sequences for entries named in this document (tags omitted). A change or cut given only in a name is not applied to a line headed by its entry. Chains listed by the source or under a name are the forms on record and can include a tag or linker. Residues count along the entry.
# UniProt P25490: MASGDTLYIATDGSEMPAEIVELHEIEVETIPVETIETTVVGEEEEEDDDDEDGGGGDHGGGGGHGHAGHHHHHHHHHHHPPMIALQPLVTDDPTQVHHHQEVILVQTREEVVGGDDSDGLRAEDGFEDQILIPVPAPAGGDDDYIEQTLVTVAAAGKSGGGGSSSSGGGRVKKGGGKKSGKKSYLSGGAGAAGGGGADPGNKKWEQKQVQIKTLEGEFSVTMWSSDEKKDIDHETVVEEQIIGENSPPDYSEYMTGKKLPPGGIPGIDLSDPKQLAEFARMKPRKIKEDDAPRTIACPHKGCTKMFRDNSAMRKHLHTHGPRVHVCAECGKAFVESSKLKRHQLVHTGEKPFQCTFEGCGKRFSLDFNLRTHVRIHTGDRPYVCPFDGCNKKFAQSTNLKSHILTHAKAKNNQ
# YY1 C-terminal domain (a.a. 251-414), Flag-tagged: residues 251-414 of P25490
# YY1 C-terminal domain (amino acid 251-320), Flag-tagged: residues 251-320 of P25490
# UniProt Q14209: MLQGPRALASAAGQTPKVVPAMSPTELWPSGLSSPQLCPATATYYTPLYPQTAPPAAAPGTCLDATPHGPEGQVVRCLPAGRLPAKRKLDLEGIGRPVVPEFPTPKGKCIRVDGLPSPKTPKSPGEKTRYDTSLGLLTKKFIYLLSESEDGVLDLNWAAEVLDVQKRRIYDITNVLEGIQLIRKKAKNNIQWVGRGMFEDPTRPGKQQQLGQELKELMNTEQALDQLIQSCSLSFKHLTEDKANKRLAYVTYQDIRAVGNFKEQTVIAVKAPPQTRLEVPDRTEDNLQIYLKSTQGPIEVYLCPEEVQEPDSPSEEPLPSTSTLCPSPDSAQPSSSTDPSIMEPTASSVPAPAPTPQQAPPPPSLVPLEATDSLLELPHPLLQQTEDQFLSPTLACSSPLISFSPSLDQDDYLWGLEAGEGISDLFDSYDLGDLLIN
# E2F3b (O00716, form named): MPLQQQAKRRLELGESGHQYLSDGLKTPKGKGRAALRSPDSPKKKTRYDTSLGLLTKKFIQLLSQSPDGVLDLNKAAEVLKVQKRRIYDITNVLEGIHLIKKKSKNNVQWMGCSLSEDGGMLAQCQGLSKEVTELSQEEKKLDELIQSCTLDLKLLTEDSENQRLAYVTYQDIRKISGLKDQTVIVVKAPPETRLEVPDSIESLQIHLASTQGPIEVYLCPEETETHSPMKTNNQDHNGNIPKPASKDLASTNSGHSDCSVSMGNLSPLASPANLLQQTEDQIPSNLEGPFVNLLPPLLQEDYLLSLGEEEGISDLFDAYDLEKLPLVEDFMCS
# M-MITF central b-HLH-Zip (amino acid 181-300), HA-tagged (O75030, residues 288-407): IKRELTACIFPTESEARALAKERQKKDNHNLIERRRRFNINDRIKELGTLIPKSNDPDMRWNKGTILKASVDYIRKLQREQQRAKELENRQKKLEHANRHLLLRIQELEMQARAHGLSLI
# M-MITF smaller b-HLH-Zip domain (amino acid 181-264), HA-tagged (O75030, residues 288-371): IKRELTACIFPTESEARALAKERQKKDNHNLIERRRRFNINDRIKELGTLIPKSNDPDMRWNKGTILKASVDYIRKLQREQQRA
# M-MITF C-terminal TAD (amino acid 301-419), HA-tagged (O75030, residues 408-526): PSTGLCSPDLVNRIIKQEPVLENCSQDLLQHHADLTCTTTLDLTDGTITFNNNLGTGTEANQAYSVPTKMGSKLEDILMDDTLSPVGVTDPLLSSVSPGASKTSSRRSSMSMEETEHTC
# HA-tagged M-MITF, full length (O75030-9, form named): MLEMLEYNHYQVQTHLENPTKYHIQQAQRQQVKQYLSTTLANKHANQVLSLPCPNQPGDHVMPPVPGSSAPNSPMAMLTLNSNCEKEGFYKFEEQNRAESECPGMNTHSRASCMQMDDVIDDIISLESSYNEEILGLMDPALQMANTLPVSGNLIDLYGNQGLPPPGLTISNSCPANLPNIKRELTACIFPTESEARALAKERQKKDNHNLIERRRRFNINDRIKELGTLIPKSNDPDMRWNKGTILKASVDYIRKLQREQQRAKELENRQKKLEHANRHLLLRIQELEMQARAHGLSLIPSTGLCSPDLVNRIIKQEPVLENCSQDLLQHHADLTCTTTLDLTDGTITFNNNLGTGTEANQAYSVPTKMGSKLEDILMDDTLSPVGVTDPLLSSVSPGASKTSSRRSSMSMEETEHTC
# M-MITF N-terminal TAD (amino acid 1-180), HA-tagged (O75030-9, form named): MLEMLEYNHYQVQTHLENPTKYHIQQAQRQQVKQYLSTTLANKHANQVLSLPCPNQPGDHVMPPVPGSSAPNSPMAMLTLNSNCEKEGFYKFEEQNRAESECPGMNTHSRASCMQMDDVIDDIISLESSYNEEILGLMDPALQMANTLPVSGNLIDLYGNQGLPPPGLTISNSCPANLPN
# UniProt P19532: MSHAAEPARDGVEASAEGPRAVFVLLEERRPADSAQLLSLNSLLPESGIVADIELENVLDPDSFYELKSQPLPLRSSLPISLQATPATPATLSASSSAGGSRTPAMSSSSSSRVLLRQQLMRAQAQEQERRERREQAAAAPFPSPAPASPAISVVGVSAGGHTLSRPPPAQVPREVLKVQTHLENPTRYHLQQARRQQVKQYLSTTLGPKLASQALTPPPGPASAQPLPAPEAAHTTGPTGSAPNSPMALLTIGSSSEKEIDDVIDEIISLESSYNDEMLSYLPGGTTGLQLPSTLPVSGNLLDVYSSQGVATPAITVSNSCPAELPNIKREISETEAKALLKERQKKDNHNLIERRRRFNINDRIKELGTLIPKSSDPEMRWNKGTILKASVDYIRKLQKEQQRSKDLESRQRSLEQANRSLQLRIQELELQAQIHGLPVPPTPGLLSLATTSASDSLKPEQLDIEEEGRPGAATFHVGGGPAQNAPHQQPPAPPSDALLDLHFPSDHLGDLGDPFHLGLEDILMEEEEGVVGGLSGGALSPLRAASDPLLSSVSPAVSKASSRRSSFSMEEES
# These are yes or no findings as the source states them, for the method shown. Binding seen in cells or lysates may run through a third protein. Some entries that bind do so weakly or less than the wild type.
# How the values were obtained:
# [1] = target: YY1 C-terminal domain (a.a. 251-414), Flag-tagged (human) (UniProt P25490); test: co-IP; expression constructs of full-length or truncated YY1 and M-MITF (Figure 3D, 3E, S3); cells, beads and antibodies not told for these panels
# [2] = target: Flag-tagged YY1 (Yin Yang 1), full length (human) (UniProt P25490); test: as above
# [3] = target: YY1 C-terminal domain (amino acid 251-320), Flag-tagged (human) (UniProt P25490); test: as above
# [4] = target: Flag-tagged YY1 (Yin Yang 1), full length (human) (UniProt P25490); test: co-IP; 293T cells co-transfected with the indicated plasmids; total cell lysate immunoprecipitated with anti-Flag M2 agarose beads; western blotting with anti-Flag and anti-HA
# E2F2 = E2F2 (UniProt Q14209); test: as above
# E2F3b = E2F3b (UniProt O00716); test: as above
Substance,binding [2],binding [4],other results
"HA-tagged M-MITF, full length (from UniProt O75030-9 1-419)",binds,binds,binding [1]: binds; binding [3]: binds
HA-tagged TFE3 (from UniProt P19532 1-575),,binds,binding (E2F2): no binding; binding (E2F3b): binds
"M-MITF C-terminal TAD (amino acid 301-419), HA-tagged (from UniProt O75030-9 301-419) (domain or fragment)",no binding,,
"M-MITF N-terminal TAD (amino acid 1-180), HA-tagged (from UniProt O75030-9 1-180) (domain or fragment)",binds,,

# More lines, main results first:
binding [2],binding [4],Substance,other results
binds,,"M-MITF central b-HLH-Zip (amino acid 181-300), HA-tagged (from UniProt O75030-9 181-300) (domain or fragment)",
binds,,"M-MITF smaller b-HLH-Zip domain (amino acid 181-264), HA-tagged (from UniProt O75030-9 181-264) (domain or fragment)",
